This is one part of the list. At the low end of the ranking, values are background and their order means little.
test system: T1, GST-NbGlk1(82-244); assay: protein-binding microarray; conditions: NbGlk1 is a Golden2-like transcription factor of Nicotiana benthamiana; high values mean tight binding; most listed sequences are background and not binding sites; double strand, one strand shown;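 also: rank-based score ranging −0.5 to +0.5 with E above 0.45 taken as significant binding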
T1 sequence: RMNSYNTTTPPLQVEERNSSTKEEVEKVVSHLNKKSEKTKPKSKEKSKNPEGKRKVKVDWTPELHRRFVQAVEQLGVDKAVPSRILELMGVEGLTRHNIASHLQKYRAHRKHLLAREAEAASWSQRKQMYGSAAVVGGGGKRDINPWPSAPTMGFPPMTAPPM

Row | Sequence | binding signal [E-score]
1 | AGGTTTTA | -0.0542
2 | AGCCGGTA | -0.282
3 | ATTTCGCG | 0.305
4 | ACGACCCT | -0.182
5 | AGTTAACG | -0.0894
6 | ACCTTCGG | -0.216
7 | ACTTGAGG | 0.0371
8 | AGTATAAG | 0.0124
9 | AATTACTC | 0.152
10 | AAGCCTGC | -0.231
11 | ATCGTCTA | 0.208
12 | AGTGCGGG | -0.155
13 | AACCTGTA | -0.081
14 | AAGCCCTA | -0.232
15 | AGAAGACC | -0.255
16 | AACGCACA | 0.00654
17 | AAACCTGT | -0.127
18 | ATACTTAG | -0.0266
19 | ACTTCCCC | -0.206
20 | AGTCCTCG | -0.3
21 | AGGGTGTG | -0.224
22 | ATCTATCC | 0.191

Row | Sequence | binding signal [E-score]
23 | ATTCCGTA | 0.308
24 | AATGTGTG | 0.0225
25 | AAATTACC | 0.252
26 | CAACGGGA | 0.0414
27 | AGAGGTCG | -0.203
28 | AAGCATTC | -0.217
29 | AAGAATGG | 0.04
30 | ATGGTTCA | -0.0612
31 | ATACGTGA | 0.166
32 | AGACACGA | -0.00555
33 | ATAAATTG | 0.163
34 | ACGTCACT | -0.128
35 | AAATATAG | 0.237
36 | AGTAGTAC | -0.0215
37 | ACGTCTAG | -0.127
38 | ACAAACAG | 0.0895
39 | AATACGAG | 0.133
40 | AGTATGCC | -0.135
41 | AAGGATGC | -0.0518
42 | ACGTTTTA | 0.0214
43 | ACACGGTA | -0.0538
44 | ACATACGC | -0.0828

Row | Sequence | binding signal [E-score]
45 | ACTCGCGG | -0.147
46 | AGGAGCGA | -0.141
47 | ATAGAGAC | 0.048
48 | AACCAGAA | 0.107
49 | AGGAGCTA | -0.169
50 | AGACATTA | 0.0496
51 | ACTTATTA | 0.125
52 | ATACCCTG | 0.011
53 | AAAAAGAC | -0.0621
54 | AATGTGAG | -0.00782
55 | AGCCACCT | -0.22
56 | CAAATGTG | -0.00951
57 | ATCACCAA | 0.101
58 | ACGGCCGA | -0.0553
59 | AGGTAACA | -0.163
60 | ATGGACGC | -0.126
61 | AGCACCTG | -0.228
62 | CAAAGAGG | -0.118
63 | AAAGCAGC | -0.045
64 | ATCGTATC | 0.36
65 | AAATACCA | 0.0562
66 | AACACCTT | 0.0389

Row | Sequence | binding signal [E-score]
67 | ATGATAGA | 0.166
68 | CACCTGAA | -0.148
69 | ACCTTCTA | -0.062
70 | ACCCTGTG | -0.135
71 | ACCGCTGA | -0.179
72 | ATTTGCTG | 0.225
73 | ATGCCTAA | 0.0514
74 | ACACGGTG | -0.206
75 | ACGAGAAC | -0.0407
76 | AAGTAGAG | -0.113
77 | ATTATACG | 0.138
78 | AAAACCGG | 0.113
79 | AGGCAACC | -0.215
80 | ACCTCCCG | -0.176
81 | AGATATCC | 0.48
82 | ATATGGGA | 0.208
83 | CAGCGAGC | -0.255
84 | AGGCTTGA | -0.164
85 | CAACATCC | 0.0464
86 | AAATTTGT | 0.157
87 | ACACCCAA | -0.196
88 | ACAACGCG | -0.0812

Row | Sequence | binding signal [E-score]
89 | AAGGGAAG | -0.253
90 | AAAGCAGA | 0.0773
91 | AACCAAAG | -0.0575
92 | AAAAAGGG | -0.0601
93 | AAGGGTTC | -0.194
94 | ATCAGAGC | 0.0491
95 | AACCAAGA | 0.0663
96 | ATACTGCG | 0.0586
97 | ACACATCA | -0.0432
98 | AATTCGTC | 0.0604
99 | AAAACCGC | -0.159
100 | AAAGGTGC | -0.174
101 | ATCCTACG | 0.116
102 | AGCTGCCG | -0.271
103 | AAGGTCAG | -0.155
104 | ACCCTCAT | -0.114
105 | ACAGCGGT | -0.215
106 | ATTCATGG | 0.0088
107 | AGTGAGTA | -0.03
108 | AACCTGTG | -0.0744
109 | ACCGCAAA | -0.0137
110 | ACATCAAG | 0.00309

Source: PMC5836133
